Consider 86 sequences from the supplement of paper PMC3334620.

Whole data set: some 33,000 sequences, median “E-score (-0.5 to 0.5)” near -0.016, cut for the highest 2% near 0.32. This is one part of the list.

This experiment concerns the target T1, Stp1 (UniProt B3LFK1).
T1 sequence: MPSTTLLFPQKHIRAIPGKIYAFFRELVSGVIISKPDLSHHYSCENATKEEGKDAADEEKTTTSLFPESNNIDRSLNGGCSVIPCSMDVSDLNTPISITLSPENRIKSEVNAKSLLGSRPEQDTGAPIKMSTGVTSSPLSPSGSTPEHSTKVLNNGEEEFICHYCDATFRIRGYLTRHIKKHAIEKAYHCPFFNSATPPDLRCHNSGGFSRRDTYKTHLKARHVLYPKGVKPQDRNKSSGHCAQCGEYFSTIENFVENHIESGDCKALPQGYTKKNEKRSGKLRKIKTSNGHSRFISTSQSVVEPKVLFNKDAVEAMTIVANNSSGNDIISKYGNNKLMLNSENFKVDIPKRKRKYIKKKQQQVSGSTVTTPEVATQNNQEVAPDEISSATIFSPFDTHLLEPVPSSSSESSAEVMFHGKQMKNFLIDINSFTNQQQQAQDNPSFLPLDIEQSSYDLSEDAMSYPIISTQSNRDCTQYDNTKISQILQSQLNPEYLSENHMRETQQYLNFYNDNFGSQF
The experiment is described as follows: PBM E-score (8-mer binding enrichment) (E-score (-0.5 to 0.5)); higher = stronger / more preferred TF binding; most listed sequences are background and not binding sites. The note with it: protein concentration: 200 nM; construct: GST-full length. Put shortly:
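Bound GST-tagged yeast transcription factors, applied at about 100-200 nM to double-stranded universal all-10-mer Agilent arrays, were detected with fluorescent anti-GST. Scans were normalised with masliner. A modified Wilcoxon-Mann-Whitney statistic, the E-score, was assigned to each ungapped eight-base word pooled with its reverse complement by the Universal PBM Analysis Suite.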
In the case of AGGGTTCC, the “PBM E-score” value is -0.289.
For ACAATAAC, the “PBM E-score” value is 0.246.
As to CCGGCGAC, the “PBM E-score” value was -0.167.
As to GCAACTCA, the “PBM E-score” value stood at 0.0174.
For ACTAGAAC the value was 0.0839.
As to AGGGGGAT, the “PBM E-score” value is -0.338.
Turning to GAATTTTA, the “PBM E-score” value turned out to be 0.2.
Regarding ATGTGAGG, the “PBM E-score” value was determined as 0.171.
Under ACTTGCCA stands -0.106; under CTCATAGC, -0.203; under ATTGGGTA, -0.0748.
Under AATCGCAC stands -0.113; under AACACGAT, 0.0593; under CCACAGAA, -0.164.
For the sequence GAAAACGC, the “PBM E-score” value amounted to 0.119.
For GGTACATA, the “PBM E-score” value is 0.00334.
For the sequence GATCGATA, the “PBM E-score” value was found to be 0.0061.
Under ATTTATTC stands 0.279; under GGCTACTA, 0.0999.
With CTCGATGC, the “PBM E-score” value was -0.157.
With CATATCTC, the “PBM E-score” value is -0.0779.
For the sequence GCCGAGAC, the “PBM E-score” value was -0.0678.
For the sequence GCACTCCA, the “PBM E-score” value was -0.114.
For ACTTTCAG, the “PBM E-score” value is -0.11.
Under CACTCCGC stands -0.0759; under GGTACGAC, -0.27; under CATCCCAA, 0.0348.
With CAGACAGA, the “PBM E-score” value amounted to 0.0203.
ACGATCAT: the “PBM E-score” value is -0.0345.
For CCACTGGG the value was -0.26; for CCTTTGTA, 0.0318.
As for AGGCAATC, the “PBM E-score” value came to 0.114.
For ACTTTTCA, the “PBM E-score” value was determined as 0.0644.
Turning to ACGAATGC, the “PBM E-score” value was 0.108.
GTCGGCAC: the “PBM E-score” value is 0.172.
Under AGCCCAAT stands -0.0513; under ATCGCTTG, -0.0502.
In the case of AAGTACGT, the “PBM E-score” value was found to be 0.0577.
Take CGGGATCA: the “PBM E-score” value is -0.263.
Under AGTGGATC stands -0.122; under ATATGGCG, 0.207.
Regarding GGTCAAGA, the “PBM E-score” value was -0.119.
On to CGCGGACC, for which the “PBM E-score” value was 0.0907.
For CCTACTAG the value was -0.219; for CAGGATCA, -0.0277; for CAGGGTAA, -0.0539.
For TATGGAAA, the “PBM E-score” value is -0.0157.
Under CGCCGAAA stands 0.0531; under CGGACATC, -0.0908; under CACGTGAA, 0.123.
Take AAAATAAC: the “PBM E-score” value was determined as 0.0333.
As to AGCACACG, the “PBM E-score” value is 0.0926.
As to GGGGCTAC, the “PBM E-score” value was -0.161.
Under ACGGTACT stands 0.0277.
Take GGATAGAC: the “PBM E-score” value was -0.0544.
For CGCAAGAG, the “PBM E-score” value is -0.00269.
As for ACCTACAT, the “PBM E-score” value was -0.177.
Regarding TAATCCTA, the “PBM E-score” value amounted to 0.0466.
Turning to AAGCGATC, the “PBM E-score” value is -0.0218.
Consider AAACACAC, for which the “PBM E-score” value came out at 0.204.
For CACGAACC the value was -0.0471; for AACATGAT, 0.139.
Turning to AAGAGTGT, the “PBM E-score” value was -0.139.
Consider CAAGAAGA, for which the “PBM E-score” value amounted to 0.0362.
In the case of CTATTCAC, the “PBM E-score” value came out at 0.147.
AAAACCCG: the “PBM E-score” value amounted to 0.0801.
ACGACATG: the “PBM E-score” value was -0.0723.
As to TGGTACCA, the “PBM E-score” value came to 0.149.
Under CAGCAATC stands 0.0191; under GGGTTAGA, -0.257; under GATAGGAC, -0.257.
For CATCAACG the value was 0.0107; for ACATCACT, 0.0413.
For the sequence CTGACAGC, the “PBM E-score” value is -0.194.
Regarding GCTGGGGA, the “PBM E-score” value was -0.386.
Turning to CTCGCACA, the “PBM E-score” value worked out at 0.0559.
Consider CAAAAACC, for which the “PBM E-score” value was determined as 0.204.
As to GCATTACA, the “PBM E-score” value was 0.0105.
As to CCTTCACG, the “PBM E-score” value is 0.124.
In the case of CCCTGCAG, the “PBM E-score” value was -0.12.
In the case of CGTGAGAG, the “PBM E-score” value is -0.246.
As to GGCCAAGA, the “PBM E-score” value was -0.261.
Consider AACTAAGT, for which the “PBM E-score” value worked out at 0.0905.
Take GGCTGGAA: the “PBM E-score” value is -0.168.
On to ATGTGTCC, for which the “PBM E-score” value is -0.028.
As for CGTTTTGC, the “PBM E-score” value was determined as 0.18.
